From the supplement of paper PMC11417369
Some of the results follow.

Test system: PfHDP1 homeodomain (GST-tagged)
Assay: gcPBM binding intensity (ln(normalized median fluorescence intensity)); higher = stronger DNA binding
How it was run: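 GST-tagged P. falciparum DNA-binding domains, expressed in E. coli (about 25 μg on average), were applied for 1 h to an Agilent 4 × 180k array of primer-extended double-stranded 36-bp intergenic genomic probes plus negative controls. The binding buffer was 1× PBS with 1% milk, 0.2 mg/ml BSA, 0.5% salmon testes DNA and 0.03% Triton X-100. Bound protein was detected with Alexa488 anti-GST antibody and scanned at 488 nm. Binding intensity is the highest Masliner-normalised natural-log median intensity across replicate spots of either probe orientation.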

Row | Sequence | gcPBM binding intensity (ln)
1 | AATATATATATATATAGTACATATTTTTATTCATTA [XGTACX_site2156] | 6.24
2 | ATATATATTTTTTAAACACACACATAAATATTTGTG [CACACA_site8936] | 6.94
3 | AATACACAAATATATTGTACATATATATATATATAT [XGTACX_site2440] | 9.24
4 | CATATATAAATATAAATATATATATATATATATATG [XGTACX_negctrl_site493] | 7.09
5 | ACTTATTATTAATATTGTACTCTTGAAAATTGTGGA [XGTACX_site6315] | 6.26
6 | TAATATATGAGAAATTGTACAGAAAGGAATATGCTT [XGTACX_site5300] | 6.67
7 | TTACAAATGGTTTACACACACATAATTGTATCAATT [CACACA_site4167] | 6.72
8 | AAGAAATATTTATACACACACACAAACATATATATA [CACACA_site1912] | 7.01
9 | ATATTATTGTAGAAATGTACATATATATATATATAT [XGTACX_site1882] | 9.24
10 | TATATATGTTCAATATGTACATATATATAAGTGTAT [XGTACX_site5157] | 6.64
11 | CAAAAGTATAATAATACACACACTTTAAAAGTTAAA [CACACA_site3343] | 6.53
12 | TAGATTCTTGAATAAGTGCAAAATATAATATTTATT | 9.28
13 | AAAAATAAAATAAAATAAAATAAACATACCATATGT [CACACA_negctrl_site594] | 6.34
14 | TTTTTATTTTTGTAGTGTACTTTATTTTTTTTGTTT [XGTACX_site8887] | 6.77
15 | TTTAAACAAGGATCCACACACCCCAAAAAAAAAAGA [CACACA_site680] | 7.34
16 | CTGTATTCATAATTCACACAAATGGTTTATATGAAT [CACACA_site4315] | 6.44
17 | TATATATATATATACACACACACACCCATATATATA [CACACA_site2538] | 9.27
18 | CATATTTGCACTTTCACACATAAATATATAACTATA [CACACA_site6016] | 10.3
19 | CATACATACAGATATACACACATATATAATAATATA [CACACA_site5477] | 6.89
20 | ATATATATTTATTTATGTACGAATAAATTTACGAAT [XGTACX_site5190] | 6.49
21 | AATATCATTATATAAGTGCATTTTTTAAAAGATAAA [GTGCAC_site9479] | 8.09
22 | TTAATAGGTCGAAGTAGTACATAAAAATATATATAT [XGTACX_site5960] | 7.81
23 | ATATATATATATCATAGTACACATATGTGTCTCGTG [XGTACX_site774] | 8.84
24 | TTGTTATAGAAGCATTCACACACACCCATACATACA [CACACA_site8414] | 6.96
25 | AAGTTAACAATATGAAGTACAAATGAAAAAAAAAAA [XGTACX_site666] | 6.58
